Experimental data as given in the supplement of paper PMC10369915.
The other results are listed elsewhere or left out. Rule as the data show it: active = 3.2 or more and inactive = the rest. Only a few entries rise above the background.

Legend:
Experiment in all cases: enrichment score (SH2-bound / input frequency) (ratio); bacterial display of known human phosphotyrosine sites (pTyr-Var adds point mutants) read by sequencing; higher = stronger binding; tyrosines were phosphorylated by kinases first
Settings in all cases: peptide library: Human pTyr
SHP2 C-SH2 domain E139D = target: SHP2 C-SH2 domain E139D
[1] = target: SHP2 C-SH2 domain wild-type
SHP2 N-SH2 domain L43F = target: SHP2 N-SH2 domain L43F
SHP2 N-SH2 domain T42A = target: SHP2 N-SH2 domain T42A
SHP2 N-SH2 domain T52S = target: SHP2 N-SH2 domain T52S
[2] = target: SHP2 N-SH2 domain wild-type

Measured: enrichment score
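Also: displayed peptides selected on beads carrying the immobilized SH2 domain, with library peptides lacking any tyrosine serving as negative controls.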

B1: VGFR1_HUMAN_914 (peptide)
chain: VIVEYCKYGNLSNYL
inactive: SHP2 C-SH2 domain E139D 1.81 | [1] 1.45 | SHP2 N-SH2 domain L43F 1.55 | SHP2 N-SH2 domain T42A 1.36 | SHP2 N-SH2 domain T52S 1.73 | [2] 1.81

B2: VGFR1_HUMAN_914_YA (peptide)
chain: VIVEACKYGNLSNAL
inactive: SHP2 C-SH2 domain E139D 1.68 | [1] 1.57 | SHP2 N-SH2 domain L43F 1.6 | SHP2 N-SH2 domain T42A 1.68 | SHP2 N-SH2 domain T52S 1.5 | [2] 1.76

B3: VGFR2_HUMAN_1054 (peptide)
chain: FGLARDIYKDPDYVR
inactive: SHP2 C-SH2 domain E139D 1.06 | [1] 0.928 | SHP2 N-SH2 domain L43F 1.11 | SHP2 N-SH2 domain T42A 0.907 | SHP2 N-SH2 domain T52S 0.939 | [2] 0.871

B4: VGFR2_HUMAN_1054_YA (peptide)
chain: FGLARDIYKDPDAVR
inactive: SHP2 C-SH2 domain E139D 0.991 | [1] 0.789 | SHP2 N-SH2 domain L43F 0.667 | SHP2 N-SH2 domain T42A 0.734 | SHP2 N-SH2 domain T52S 0.711 | [2] 1.08

B5: VGFR2_HUMAN_1059 (peptide)
chain: DIYKDPDYVRKGDAR
inactive: SHP2 C-SH2 domain E139D 0.847 | [1] 0.851 | SHP2 N-SH2 domain L43F 0.841 | SHP2 N-SH2 domain T42A 0.755 | SHP2 N-SH2 domain T52S 0.804 | [2] 1.17

B6: VGFR2_HUMAN_1059_YA (peptide)
chain: DIAKDPDYVRKGDAR
inactive: SHP2 C-SH2 domain E139D 0.787 | [1] 0.652 | SHP2 N-SH2 domain L43F 0.67 | SHP2 N-SH2 domain T42A 0.813 | SHP2 N-SH2 domain T52S 0.884 | [2] 0.758

B7: BCLAF1_HUMAN_93_YA (peptide)
chain: GRAHRGGYRPVWNRR
inactive: SHP2 C-SH2 domain E139D 0.781 | [1] 0.598 | SHP2 N-SH2 domain L43F 0.706 | SHP2 N-SH2 domain T42A 0.675 | SHP2 N-SH2 domain T52S 0.816 | [2] 0.624

B8: VGFR2_HUMAN_1175 (peptide)
chain: AQQDGKDYIVLPISE
inactive: SHP2 C-SH2 domain E139D 0.789 | [1] 0.6 | SHP2 N-SH2 domain L43F 0.463 | SHP2 N-SH2 domain T42A 0.733 | SHP2 N-SH2 domain T52S 0.644 | [2] 0.691

B9: VGFR2_HUMAN_1305 (peptide)
chain: GSNQTSGYQSGYHSD
inactive: SHP2 C-SH2 domain E139D 0.605 | [1] 0.549 | SHP2 N-SH2 domain L43F 0.521 | SHP2 N-SH2 domain T42A 0.582 | SHP2 N-SH2 domain T52S 0.678 | [2] 0.651

B10: VGFR2_HUMAN_1305_YA (peptide)
chain: GSNQTSGYQSGAHSD
inactive: SHP2 C-SH2 domain E139D 0.607 | [1] 0.583 | SHP2 N-SH2 domain L43F 0.579 | SHP2 N-SH2 domain T42A 0.502 | SHP2 N-SH2 domain T52S 0.577 | [2] 0.622

B11: VGFR2_HUMAN_996 (peptide)
chain: EEAPEDLYKDFLTLE
inactive: SHP2 C-SH2 domain E139D 1.56 | [1] 1.69 | SHP2 N-SH2 domain L43F 1.71 | SHP2 N-SH2 domain T42A 1.34 | SHP2 N-SH2 domain T52S 1.4 | [2] 1.76

B12: BCLF1_HUMAN_219 (peptide)
chain: IWPGLSAYDNSPRSP
inactive: SHP2 C-SH2 domain E139D 0.746 | [1] 0.813 | SHP2 N-SH2 domain L43F 0.762 | SHP2 N-SH2 domain T42A 0.568 | SHP2 N-SH2 domain T52S 0.647 | [2] 0.591

B13: ABCB7_HUMAN_340_YA (peptide)
chain: AIDSLLNYETVKAFN
inactive: SHP2 C-SH2 domain E139D 0.579 | [1] 0.573 | SHP2 N-SH2 domain L43F 0.626 | SHP2 N-SH2 domain T42A 0.573 | SHP2 N-SH2 domain T52S 0.592 | [2] 0.58

B14: VGFR3_HUMAN_1265 (peptide)
chain: FPMTPTTYKGSVDNQ
inactive: SHP2 C-SH2 domain E139D 0.641 | [1] 0.588 | SHP2 N-SH2 domain L43F 0.777 | SHP2 N-SH2 domain T42A 0.718 | SHP2 N-SH2 domain T52S 0.718 | [2] 0.57

B15: VGFR3_HUMAN_1333 (peptide)
chain: ARGGQVFYNSEYGEL
inactive: SHP2 C-SH2 domain E139D 0.778 | [1] 0.673 | SHP2 N-SH2 domain L43F 0.688 | SHP2 N-SH2 domain T42A 0.622 | SHP2 N-SH2 domain T52S 0.704 | [2] 0.7

B16: VGFR3_HUMAN_833 (peptide)
chain: EQCEYLSYDASQWEF
inactive: SHP2 C-SH2 domain E139D 1.52 | [1] 1.47 | SHP2 N-SH2 domain L43F 1.25 | SHP2 N-SH2 domain T42A 1.37 | SHP2 N-SH2 domain T52S 1.71 | [2] 1.63

B17: VHL_HUMAN_112 (peptide)
chain: TGRRIHSYRGHLWLF
inactive: SHP2 C-SH2 domain E139D 1.7 | [1] 0.539 | SHP2 N-SH2 domain L43F 0.908 | SHP2 N-SH2 domain T42A 0.568 | SHP2 N-SH2 domain T52S 0.314 | [2] 0.702

B18: VHL_HUMAN_175 (peptide)
chain: SLVKPENYRRLDIVR
inactive: SHP2 C-SH2 domain E139D 1.02 | [1] 0.735 | SHP2 N-SH2 domain L43F 0.815 | SHP2 N-SH2 domain T42A 0.782 | SHP2 N-SH2 domain T52S 0.906 | [2] 0.961

B19: VIGLN_HUMAN_437 (peptide)
chain: DLINRMDYVEINIDH
inactive: SHP2 C-SH2 domain E139D 0.775 | [1] 1 | SHP2 N-SH2 domain L43F 0.893 | SHP2 N-SH2 domain T42A 0.897 | SHP2 N-SH2 domain T52S 0.881 | [2] 0.922

B20: BCLF1_HUMAN_284 (peptide)
chain: VGNGSSRYSPSQNSP
inactive: SHP2 C-SH2 domain E139D 0.751 | [1] 0.691 | SHP2 N-SH2 domain L43F 0.614 | SHP2 N-SH2 domain T42A 0.55 | SHP2 N-SH2 domain T52S 0.722 | [2] 0.555

B21: VIL1_HUMAN_60_YA (peptide)
chain: KTASSLSYDIHAWIG
inactive: SHP2 C-SH2 domain E139D 1.51 | [1] 1.54 | SHP2 N-SH2 domain L43F 1.58 | SHP2 N-SH2 domain T42A 1.4 | SHP2 N-SH2 domain T52S 1.52 | [2] 1.64

B22: VIL1_HUMAN_64 (peptide)
chain: SLSYDIHYWIGQDSS
inactive: SHP2 C-SH2 domain E139D 1.99 | [1] 2.18 | SHP2 N-SH2 domain L43F 2.12 | SHP2 N-SH2 domain T42A 1.74 | SHP2 N-SH2 domain T52S 2.02 | [2] 2.04

B23: VIL1_HUMAN_64_YA (peptide)
chain: SLSADIHYWIGQDSS
inactive: SHP2 C-SH2 domain E139D 1.1 | [1] 1.12 | SHP2 N-SH2 domain L43F 1.04 | SHP2 N-SH2 domain T42A 1.18 | SHP2 N-SH2 domain T52S 1.12 | [2] 1.22

B24: WASF3_HUMAN_151 (peptide)
chain: KKDGLKFYTDPSYFF
inactive: SHP2 C-SH2 domain E139D 1.29 | [1] 1.67 | SHP2 N-SH2 domain L43F 1.15 | SHP2 N-SH2 domain T42A 1.46 | SHP2 N-SH2 domain T52S 1.58 | [2] 1.32

B25: WBP2_HUMAN_231 (peptide)
chain: AEAAASAYYNPGNPH
inactive: SHP2 C-SH2 domain E139D 0.728 | [1] 0.768 | SHP2 N-SH2 domain L43F 0.739 | SHP2 N-SH2 domain T42A 0.91 | SHP2 N-SH2 domain T52S 0.638 | [2] 0.621

B26: WDR44_HUMAN_11 (peptide)
chain: ESDTEEFYDAPEDVH
inactive: SHP2 C-SH2 domain E139D 1.21 | [1] 1.11 | SHP2 N-SH2 domain L43F 1.24 | SHP2 N-SH2 domain T42A 1.11 | SHP2 N-SH2 domain T52S 1.42 | [2] 1.18

B27: WDR44_HUMAN_479 (peptide)
chain: SDDEGMPYTRPVKFK
inactive: SHP2 C-SH2 domain E139D 0.846 | [1] 0.763 | SHP2 N-SH2 domain L43F 0.981 | SHP2 N-SH2 domain T42A 0.661 | SHP2 N-SH2 domain T52S 0.771 | [2] 0.799

B28: WNK4_HUMAN_1164 (peptide)
chain: KKEIEDLYSRLGKQP
inactive: SHP2 C-SH2 domain E139D 1.22 | [1] 1.17 | SHP2 N-SH2 domain L43F 1.14 | SHP2 N-SH2 domain T42A 1.25 | SHP2 N-SH2 domain T52S 1.06 | [2] 1.45

B29: WRIP1_HUMAN_534 (peptide)
chain: EGGEDPLYVARRLVR
inactive: SHP2 C-SH2 domain E139D 0.57 | [1] 0.577 | SHP2 N-SH2 domain L43F 0.634 | SHP2 N-SH2 domain T42A 0.693 | SHP2 N-SH2 domain T52S 0.539 | [2] 0.557

B30: WWOX_HUMAN_33_YA (peptide)
chain: TTKDGWVYAANHTEE
inactive: SHP2 C-SH2 domain E139D 0.788 | [1] 0.706 | SHP2 N-SH2 domain L43F 0.821 | SHP2 N-SH2 domain T42A 0.946 | SHP2 N-SH2 domain T52S 0.759 | [2] 0.936

B31: BCR_HUMAN_246 (peptide)
chain: SCGVDGDYEDAELNP
inactive: SHP2 C-SH2 domain E139D 1.3 | [1] 0.96 | SHP2 N-SH2 domain L43F 1.23 | SHP2 N-SH2 domain T42A 1.63 | SHP2 N-SH2 domain T52S 1.34 | [2] 1.54

B32: XRCC4_HUMAN_229 (peptide)
chain: TADRDPVYDESTDEE
inactive: SHP2 C-SH2 domain E139D 1 | [1] 1.2 | SHP2 N-SH2 domain L43F 0.973 | SHP2 N-SH2 domain T42A 1.12 | SHP2 N-SH2 domain T52S 1.18 | [2] 0.902

B33: YAP1_HUMAN_407 (peptide)
chain: SGLSMSSYSVPRTPD
inactive: SHP2 C-SH2 domain E139D 0.865 | [1] 1.75 | SHP2 N-SH2 domain L43F 0.451 | SHP2 N-SH2 domain T42A 0.537 | SHP2 N-SH2 domain T52S 0.463 | [2] 0.597

B34: YES_HUMAN_345 (peptide)
chain: VVSEEPIYIVTEFMS
inactive: SHP2 C-SH2 domain E139D 1.32 | [1] 1.06 | SHP2 N-SH2 domain L43F 2.1 | SHP2 N-SH2 domain T42A 2.09 | SHP2 N-SH2 domain T52S 2 | [2] 1.59

B35: YY1_HUMAN_254_YA (peptide)
chain: SPPDASEYMTGKKLP
inactive: SHP2 C-SH2 domain E139D 0.677 | [1] 0.726 | SHP2 N-SH2 domain L43F 0.703 | SHP2 N-SH2 domain T42A 0.714 | SHP2 N-SH2 domain T52S 0.672 | [2] 0.515

B36: ZAP70_HUMAN_178 (peptide)
chain: EEAERKLYSGAQTDG
inactive: SHP2 C-SH2 domain E139D 0.666 | [1] 0.61 | SHP2 N-SH2 domain L43F 0.707 | SHP2 N-SH2 domain T42A 0.808 | SHP2 N-SH2 domain T52S 0.613 | [2] 0.766
